The list shows a part of the results.

For the test, the system named is PF3D7_0420300 AP2 domain 1 (GST-tagged). In words: gcPBM binding intensity (ln(normalized median fluorescence intensity)); higher = stronger DNA binding. An outline of the steps: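 Binding intensity is defined as the maximum Masliner-normalised natural-log median intensity across replicate spots for either probe orientation. It was measured on an Agilent 4 × 180k array of primer-extended double-stranded 36-bp intergenic genomic probes and negative controls, to which GST-tagged P. falciparum DNA-binding domains made in E. coli were applied for 1 h in 1× PBS with 1% milk, 0.2 mg/ml BSA, 0.5% salmon testes DNA and 0.03% Triton X-100. Detection was by Alexa488 anti-GST antibody and scanning at 488 nm.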
For the sequence “TTTTTTAGAAAAAGTTGTACTTTTTTTTTTTTTTTT [XGTACX_site535]”, the “gcPBM binding intensity (ln)” value is 8.72.
As for “TTTTTACGTAAACAAAATAATTATATAATATTATTT [CACACA_negctrl_site1769]”, the figure is 9.05; as for “CGTAAATTTTTTAAAAGTACAAAAAGATACGAGAAA [XGTACX_site8722]”, 9.16; as for “TAAACAAATAAATAAACACACAATATATGTATATAT [CACACA_site3803]”, 9.59.
As for “ATATTTATATTTGTATGTACTTAAGTTTGTATGTAT [XGTACX_site3608]”, the figure is 9.44; as for “ATATATTAGGGCAAATTTTCTGACATTACATCAGTC [CACACA_negctrl_site1166]”, 9.11; as for “TATTTTTCTTTTTTCTGTACTCACACAAATAGAAGG [XGTACX_site7329]”, 9.
Regarding “AAAATAAAAACAAAATCACACATTCCAGTTTTTTTT [CACACA_site5356]”, the “gcPBM binding intensity (ln)” value is 9.37.
In the case of “TTTTAAAATATCAACACACTCATTATTTTCTATATT [CACACA_site4740]”, the “gcPBM binding intensity (ln)” value was determined as 9.3.
The value for TATATACATGTGAGAGTGCATATAGACATAAAAAAT was 9.59.
The value for “TCATTCTATCTGTTCACACATACACAAAAAAAAAAA [CACACA_site5141]” was 9.08; that for “AAGGTCATTTTATATTGTACATGAAATTGTTATGTA [XGTACX_site187]” was 9.2; that for “TATTACAAATATGGCACACATATATATATATATATT [CACACA_site3268]” was 9.23.
As for “AATAATGAATACACATGTACAAAAATTTTTCTTACT [XGTACX_site1962]”, the figure is 9.41; as for “ATATATTTTGTATGTAGTACAATTTTATAATCATAT [XGTACX_site8373]”, 9.24; as for TCAATTTGGAACGGTATGCACTAATTTTATATTTTT, 9.41.
For “ATATACAGATAAATGTGTACTTAAATCTATTATATT [XGTACX_site2632]”, the “gcPBM binding intensity (ln)” value was determined as 9.27.
As for “TTTTTGAAATAATGAAACAGCAAAAAAACAAAAATA [CACACA_negctrl_site221]”, the figure is 9.39; as for “AAAAAAAACAGACACACACACAAATATATAAAAATA [CACACA_site1172]”, 10; as for “AAAATAAGCGTGAAACGTACATATTACATTATTATA [XGTACX_site8914]”, 9.31.
The value for “TATTAAAAGAAAATAACACACACAAAAAAAAAAAAA [CACACA_site8661]” was 9.82; that for “ATAATATATATATAGTGTACATTTGAATATATTTGA [XGTACX_site583]” was 9.26.
Take “GAAAAAAAAAAAAATACACACAAATTGGTATATAAC [CACACA_site6315]”: the “gcPBM binding intensity (ln)” value was 9.66.
“GCTATAATAAAATTTAAACACACGTAATATAATATA [CACACA_site2592]”: the “gcPBM binding intensity (ln)” value was determined as 9.26.
The value for “AAAATTTCATAAAGACGTACTATAAAAATAAAATTA [XGTACX_site4182]” was 9.17; that for “GTATATTTCTTTAAATGTACACATTTTTTTAAAGAG [XGTACX_site1225]” was 8.85.
As for “AATTGTATAAATGGAATAATGACTATGATTATACAT [GTGCAC_negctrl_site188]”, the figure is 9.41.
As for “AAAAATTCTTGGCGCACACACTTTAAAAGTTAAAAA [CACACA_site6430]”, the figure is 9.25.
As for “CACTAATAGTGGATTACACACATATAGATGTATATA [CACACA_site7234]”, the “gcPBM binding intensity (ln)” value was found to be 9.35.
The value for “TATAAAAAATATCCTTTTTTTATACATCAATATATA [TGCATGCA_negctrl_site291]” was 8.92.
As for “TATATAAAACCTTATTGTACTATTAGACTATGCTTA [XGTACX_site6026]”, the “gcPBM binding intensity (ln)” value was found to be 9.06.
The value for “CAAATATCTATTTAGTGTACTAATATATTCAATAAT [XGTACX_site2345]” was 9.11.
“ACAAAGACAATTTTGTTATATATAAAAAAAAAAAAT [CACACA_negctrl_site253]”: the “gcPBM binding intensity (ln)” value worked out at 9.17.
Regarding “ATTAATTTTCCATTCACACATATATATATATATATA [CACACA_site6065]”, the “gcPBM binding intensity (ln)” value was 9.33.
The value for “TACAAATATATATGCACACACATATCTGTATATGTG [CACACA_site5663]” was 9.68; that for “ATAGCATATATTTTTTGTACATATGTTATATATATA [XGTACX_site2184]” was 9.29.
On to “ATGTAGATATATATCTGTACGTATATGTAAATATTA [XGTACX_site1516]”, for which the “gcPBM binding intensity (ln)” value turned out to be 9.23.
As for “ACACATTATAACAAGGTGCAATTTTTATACACATGT [GTGCAC_site9866]”, the figure is 9.39; as for “AATTCTTTTTATATATTAAATATTATTAATAAGTCA [CACACA_negctrl_site1488]”, 8.93.
With “TCTTAAATATACAGTTGTACTAAACAAAAAAAAAAA [XGTACX_site2639]”, the “gcPBM binding intensity (ln)” value came out at 9.09.
Take “TATAAAAAATGATAAAGTACTTTATACACACAAATA [XGTACX_site8486]”: the “gcPBM binding intensity (ln)” value was 9.64.
As for “AAAATATACACACATATGTATATAATATTATATGTA [GTGCAC_negctrl_site496]”, the figure is 9.49.
In the case of “CTAAAACAATAAATCACACATACATAGGATAATATA [CACACA_site4247]”, the “gcPBM binding intensity (ln)” value came to 9.71.
As for “ATTTATAATCTGTATAGTACACATATATACATGGTT [XGTACX_site2714]”, the figure is 9.37; as for “GTATACTTAACATTCACACATATATATATATATAAA [CACACA_site4596]”, 9.3; as for “ATATATATATATATATGTACTTATAATTCTTCAATT [XGTACX_site5627]”, 9.03.
Regarding “AATTATTTACCTTCTTTGAAAGAACAAATGATACAA [CACACA_negctrl_site1315]”, the “gcPBM binding intensity (ln)” value is 8.96.
As for “ATATATCAACTCATATTATTTTCTTTTATTATTTAT [CACACA_negctrl_site276]”, the figure is 9.46; as for “AAACATCATAAATATACACACATATATATATATATA [CACACA_site620]”, 9.34.
On to “TACACAAAATTTAAATGTACATTAAATATATGATGT [XGTACX_site2140]”, for which the “gcPBM binding intensity (ln)” value is 9.21.
The value for “TGATAGCTAGCTATATGTACATATATATATATATAT [XGTACX_site393]” was 9.18; that for CTTTCGGTTGGAGAGGTGCGCTTCTCCTTTATAATA was 9.1; that for “ATTTATCTATAATATACACACATATAACAGACATAT [CACACA_site6469]” was 9.65.
The value for “AAAACGTATCACAAAAGTACAGATAGTTATAATATA [XGTACX_site185]” was 9.43; that for “CGAAACCATATGTACACACACATATATAAATATGTA [CACACA_site7082]” was 9.76; that for “TTTATATTTCTCTTTAGTACATATTATATTCTTTTA [XGTACX_site1618]” was 9.34.
The value for “AATGAAAATAAATTAACACACAATTTTAATATTGTT [CACACA_site1306]” was 9.32.
For “AAATATATATATATAATACACACTAAAGTAACATAA [CACACA_site2870]”, the “gcPBM binding intensity (ln)” value was determined as 9.68.
As for “ATAGAAGGACATATAACACACATATATTATAAGTAT [CACACA_site5461]”, the figure is 9.68; as for “TGTCGACATGTAGGTAGTACTATTAAAAATAATGAT [XGTACX_site3849]”, 9.18; as for “GGATGATTAAGGGGGACACACGTTTATATATTTATA [CACACA_site4342]”, 9.82.
Take “AATAAATTAATAAGGTGTACATAAATAATTTATATA [XGTACX_site8278]”: the “gcPBM binding intensity (ln)” value is 9.34.
“ATATATTATTATATATGTACTTATTTATAAATGATT [XGTACX_site7597]”: the “gcPBM binding intensity (ln)” value worked out at 9.17.
As for “AAATAGGGAATTTATGCACACAGTTAAGGGGGAAAA [CACACA_site2071]”, the figure is 9.56; as for “TAAATATAAACACAAACACACACATATATATATATA [CACACA_site7978]”, 9.77.
As to “ATTCAAAAGGTTTAATGTACGTGATGTTTCACAAAT [XGTACX_site784]”, the “gcPBM binding intensity (ln)” value was determined as 9.09.
The value for “CATACTCTACATAGATGTACTCATTTAAAAAAAAAA [XGTACX_site6945]” was 8.83; that for “ATTTTTTTTTTTTTTTTTTTTTTTTTCTCTCTCACT [CACACA_negctrl_site1046]” was 9.11; that for “TTTTTTTTTAAGCAAAGGAAATCAAAATAAAAATAT [CACACA_negctrl_site719]” was 8.96.
Regarding “TTTTTTTTTTTTTTTTGTACACATAGTAAAAATTAA [XGTACX_site2410]”, the “gcPBM binding intensity (ln)” value turned out to be 8.59.
The value for “TGTTATTAAAACGTGACACACAATATATATATATAT [CACACA_site3539]” was 9.34; that for “TTATAAATTATATATATGACCAATAATTGTGAGCAT [CACACA_negctrl_site725]” was 9.3.
The value for “TATATATATATATGTTGTACTTTTAATTTAAATGTA [XGTACX_site4239]” was 9.32.
The value for “TTTTTTTTTTATTCTACACACATATGTTTTTATATG [CACACA_site182]” was 9.71; that for “TTTTTTTTTTGTAGTTGTACGAACTAGCTATTTATG [XGTACX_site692]” was 9.17; that for “TTGGCATACAGACACACACACACACGCCCACATATA [CACACA_site6425]” was 10.2.
Turning to “ATATATATATATATATGTACATATATATATTTTTTA [XGTACX_site5987]”, the “gcPBM binding intensity (ln)” value worked out at 9.25.
The value for “ATCAATACACATATATGTACATATAATAATTATCTT [XGTACX_site662]” was 9.4.
As for “TTATTTTTTCAAGAATGTACTTACGAATTGTCGTAT [XGTACX_site1363]”, the figure is 8.78; as for “CAAAAAAACAAACACACACACACACCCATATATATA [CACACA_site3653]”, 10.2.
Consider “TAATTACCATATGGTACACACATATATATATGTATA [CACACA_site3487]”, for which the “gcPBM binding intensity (ln)” value was 9.48.
As to “TTAACAAATGGACACACACACACACCCAAAAAAAAA [CACACA_site4443]”, the “gcPBM binding intensity (ln)” value was found to be 9.91.
Regarding “TTATATTAAACAAACACACACATATATATATATATA [CACACA_site2382]”, the “gcPBM binding intensity (ln)” value came out at 9.53.
As for “TATATATATATATATTGTACATATTGTATATATTGT [XGTACX_site3212]”, the figure is 9.3; as for “TGTTACATATTATAAATACATTAACTATTATATGTA [CACACA_negctrl_site1735]”, 9.16; as for “TATATATATATTTATACACACATTAGTGTATCCATG [CACACA_site5609]”, 9.56.
As for “TACTATGCCCCATATAAACACACAAATAAAAAGAAT [CACACA_site8857]”, the figure is 9.65; as for “TATAAACCTACATACACACATACAATAAGTAAAATG [CACACA_site1921]”, 9.91.
The value for “ATGTATCATAAGAACTGTGTGGTTACAGACACGAAC [GTGCAC_negctrl_site416]” was 9.57.

Source of the values: the supplement of paper PMC11417369.
